About 800 (1.6%) of roughly 50,000 compounds showed an effect of 50% or more. Some of the results follow.
What follows are molecules tested against Bcl-2-like protein 10 (Homo sapiens) (UniProt Q9HD36) (assay: Phenotype converters, Bcl-B/TR3 peptide binding displacement, primary biochemical FP (AID 1240;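 further: 0% = Bcl-B with tracer peptide and DMSO and 100% = tracer peptide lacking Bcl-B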)). Details: GST-Bcl-B / FITC-TR3 peptide fluorescence polarization; stronger effect = higher value; compound at 3.75 mg/L.
UniProt Q9HD36, sequence (Q9HD36 whole entry, looked up): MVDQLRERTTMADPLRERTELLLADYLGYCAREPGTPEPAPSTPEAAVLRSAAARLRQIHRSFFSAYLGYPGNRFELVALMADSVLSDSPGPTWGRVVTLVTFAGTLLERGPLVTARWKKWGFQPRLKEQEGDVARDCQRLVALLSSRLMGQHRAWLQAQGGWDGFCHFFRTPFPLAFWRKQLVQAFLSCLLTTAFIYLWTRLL

| Compound | displacement [%] |
| --- | --- |
| O=C(Nc1ccccc1)c1cccc(Br)c1 | 12.3 |
| CCN(CC)CCCNS(=O)(=O)c1ccc(Cl)cc1 | -5.5 |
| COc1cc(NC(=O)c2ccc(-c3cccc([N+](=O)[O-])c3)o2)ccc1NC(=O)c1ccco1 | 11.4 |
| COCCNC(=O)c1cc2n(n1)C(C(F)(F)F)CC(c1ccc(Cl)c(Cl)c1)N2 (stereo not drawn) | 6.2 |
| Cc1oc(C(C)(C)C)cc1C(=O)Nc1ccc(O)c(C(=O)O)c1 | -7.9 |
| Cc1cc(C)c(C(=O)/C(=C/c2ccc(I)cc2)c2ccccc2)c(=O)[nH]1 | -1.1 |
| CCn1cc(C(=O)O)c(=O)c2cc([N+](=O)[O-])ccc21 | 18.3 |
| O=C(Nc1ccc(N2CCCCC2)cc1)c1ccc(-c2ccccc2[N+](=O)[O-])o1 | -2.4 |
| Cc1cccc(NC(=O)Cc2ccccc2)c1 | 4.7 |
| COC(=O)c1sccc1NC(=O)c1cc(-c2ccccc2Cl)nc2ccccc12 | 22.7 |
| CC(C)(C)c1cc(C(=O)N/N=C/c2ccc(Cl)cc2Cl)n[nH]1 | -8 |
| Cc1nnc(C)n1/N=C/c1ccc(Cl)cc1 | 11.4 |
| COc1cc(CN2CCN(S(=O)(=O)c3ccc(Cl)cc3)CC2)cc(OC)c1OC | -6 |
| Cc1ccc(NCC(=O)N/N=C\c2cc(Br)cc(Br)c2OC(=O)c2cccc(F)c2)cc1 | -1.2 |
| CCc1ccc(NC(=O)C(=O)NCCc2ccc(F)cc2)cc1 | 12.1 |
| CCn1c(O)c(N=Nc2nc3ccccc3s2)c2ccccc21 | -0.9 |
| COc1ccc(/C=N/N=c2\sc3ccccc3n2C)c(OC)c1 | -8.1 |
| Cc1cc(C)nc(NS(=O)(=O)c2ccc(NC(=O)CSc3ncn[nH]3)cc2)n1 | 5.3 |
| COc1ccccc1Nc1nc(Nc2ccccc2OC)nc(N2CCOCC2)n1 | 9.3 |
| COc1ccc(C2CC(=O)Nc3c2cc(Br)c2ccccc32)cc1OC (stereo not drawn) | -7.4 |
| CCOC(=O)c1c(NC(=O)C2CCCO2)sc(C(=O)N(CC)CC)c1C (stereo not drawn) | -4 |
| O=S(=O)(Nc1ccc(Cl)cc1)c1ccc2c(c1)OCCO2 | 3.3 |
| CC1=NN(C(=O)Cc2ccc([N+](=O)[O-])cc2)C(O)(c2ccc(Cl)cc2)C1 (stereo not drawn) | 20.3 |

| Compound | displacement [%] |
| --- | --- |
| COc1ccc(C(C2=C(O)CC(C)(C)CC2=O)C2C(=O)CC(C)(C)CC2=O)c2ccccc12 (stereo not drawn) | -6.1 |
| CCOC(=O)c1c(NC(=O)c2cccc(F)c2)sc2c1CCC2 | -0.5 |
| COC(=O)C1=C(C)NC(=O)NC1c1ccc(OCCO)c(OC)c1 (stereo not drawn) | -12.3 |
| CC(=O)/C=C(\C)Nc1ncn(-c2ccc(C)cc2)c1C(=O)c1ccccc1 | 6 |
| C/C(=N/Nc1ccccc1[N+](=O)[O-])C1CC1 | -6.7 |
| COc1ccc(CC(=O)Nc2ccc(Br)c(C)c2)cc1 | 7.5 |
| CCCCOC(=O)C1=C(C)NC2=C(C(=O)CC(C)(C)C2)C1c1cccc(Cl)c1 (stereo not drawn) | 8.4 |
| Oc1ccc2ccccc2c1/C=N/Nc1ncc(Br)cn1 | -7.4 |
| COc1ccc(C(=O)Nc2ccccc2C(=O)NC(C(=O)N2CCOCC2)C(C)C)cc1 (stereo not drawn) | -9.5 |
| Cc1ccccc1C(=O)Nc1cccc(NC(=O)/C=C/c2ccc(-c3ccccc3[N+](=O)[O-])o2)c1 | 0.6 |
| CCCCOc1ccc(C(=O)OCCN2CCCCC2)c(O)c1 | -2.7 |
| CC1(C)CC(Cc2ccccc2)(C(CO)CNCc2ccc(O)cc2)CCO1 (stereo not drawn) | 1.5 |
| C/C(=C\C(=O)c1ccccc1)Nc1cccc(Cl)c1Cl | 0 |
| O=C1NN(c2ccccc2)C(=O)/C1=C\c1ccc(Cl)cc1Cl | 10.6 |
| C=CCN1C(=O)/C(=C/c2cc(Cl)ccc2O)SC1=S | -1.2 |
| Cc1ccc(OCC(=O)N2CCC(Cc3ccccc3)CC2)c(C)c1 | 3.8 |
| CCOc1ccc(N(CC(=O)NCc2ccc(Cl)cc2)S(=O)(=O)c2ccc(Br)cc2)cc1 | -4.6 |
| COc1ccc(C(=O)NCCN2CCOCC2)cc1[N+](=O)[O-] | -9.1 |
| CCC1=NN(C(=O)c2ccc(Cl)cc2)C(O)(c2ccncc2)C1 (stereo not drawn) | -8.2 |
| CCCn1c2ccccc2c2nnc(SC(CC)C(=O)Nc3ccc(Cl)cn3)nc21 (stereo not drawn) | 18.6 |
| O=C(O)c1ccc(/C=C2\SC(=O)N(c3ccc(F)cc3)C2=O)cc1 | -9 |
| COc1cccc(C(=O)Nc2ccc(-c3nc4cc(C)c(C)cc4o3)c(O)c2)c1 | -4.4 |
| COc1ccccc1C1Nc2ccc(C(=O)c3ccccc3)cc2NC2=C1C(=O)CCC2 (stereo not drawn) | -7 |

| Compound | displacement [%] |
| --- | --- |
| COc1ccc(CCN2C(=O)CC(N3CCN(Cc4ccc5c(c4)OCO5)CC3)C2=O)cc1OC (stereo not drawn) | 7.8 |
| CC(=O)c1cc(O)cc(S(=O)(=O)c2ccc(C)cc2)c1O | 4.7 |
| CCCOC(=O)c1c(-c2ccccc2Cl)csc1N | -8.2 |
| CCOc1cccc(/C=N/NC(=O)CC2C(=O)NN=C2C)c1O (stereo not drawn) | -20.8 |
| CCOC(=O)c1c(NC(=O)c2ccc(S(=O)(=O)N3CCCCC3)cc2)sc(C(C)=O)c1C | -10.4 |
| O=[N+]([O-])c1cccc(/C=N\N2CCN(c3ccc(Cl)cc3)CC2)c1 | -3.3 |
| CCOc1ccccc1NC(=O)c1c(NC(=O)c2cccc(F)c2)sc2c1CCC(C)C2 (stereo not drawn) | -6 |
| COC(=O)c1cc(NC(=O)COc2ccccc2)cc(C(=O)OC)c1 | 0.4 |
| O=C(O)c1ccc(/C=C2\SC(=S)N(c3cccc(C(F)(F)F)c3)C2=O)cc1 | 0.2 |
| COc1ccccc1/C=C1/SC(=S)N(CCC(=O)Nc2nnc(C)s2)C1=O | 10.4 |
| Cc1ccc(C(=O)O)cc1N1C(=O)c2ccccc2C1=O | 7 |
| COc1ccccc1OCCCN1CCCCC1 | 7.9 |
| COc1ccccc1-c1nnc(-c2ccco2)o1 | -4.7 |
| Cc1cc(C(=O)Nc2ccccc2C(=O)O)ccc1NC(=O)C(C)(C)C | 11.9 |
| O=[N+]([O-])c1cccc(-c2nnc(-c3cccc(S(=O)(=O)N4CCOCC4)c3)o2)c1 | -8.7 |
| COc1ccc(N2C(=O)C=CC2=O)cc1 | 9.8 |
| COc1ccc(C(=O)Nc2ccc(S(=O)(=O)N3CCCC3)cc2)cc1 | 29.5 |
| O=C(COc1ccc([N+](=O)[O-])cc1)Nc1ccc(O)cc1C(=O)O | 10.5 |
| Cc1cc([N+](=O)[O-])ccc1-c1ccc(C(=O)NC(C)(C)C)o1 | 11.2 |
| Cc1ccc(C2C3C(=O)N(c4cccc(C)c4)C(=O)C3N3CCCN23)cc1 (stereo not drawn) | 0.1 |
| CC(C)COc1ccc(/C=C2\SC(=S)NC2=O)cc1 | 1.1 |
| CCOc1ccc(S(=O)(=O)N(CC(=O)NC(C)CC)c2ccc(C)cc2)cc1 (stereo not drawn) | 11.7 |
